Source: the supplement of paper PMC4967469
pIC50: −log10 of the molar value. A lower IC50 marks a more sensitive line; a limit (>, <) means that the fit lies beyond the doses tested. AUC sums up the same curve from the lowest dose to the 256-fold higher top dose: 1 means no effect, lower means more sensitive. An inferred top dose was calculated from the reported fits.

Assays:
FK866 = compound: O=C(/C=C/c1cccnc1)NCCCCC1CCN(C(=O)c2ccccc2)CC1 [FK866]; assay: Viability of human cancer cell lines after 72 h of drug (GDSC screen); details: top dose 1 µM; top dose inferred
Method: (§1)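 Human cancer cell lines in 384-well plates, medium with 10% serum, drug for 72 h over a 256-fold dose range (nine 2-fold or five 4-fold steps up to the top dose). Adherent lines were fixed and stained with the nucleic acid dye Syto60, suspension lines read with resazurin; signal relative to control wells, capped at 0 and 100%. One two-parameter sigmoid per drug and line, fitted in a mixed model over all curves with the slope shared within a line.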

FR-180204 = compound: Nc1[nH]nc2nnc(-c3c(-c4ccccc4)nn4ccccc34)cc12 [FR-180204]; assay: as above; details: top dose 20 µM; top dose inferred
Method: as §1

Cell Line | AUC (FK866) | pIC50 (FK866) | AUC (FR-180204) | pIC50 (FR-180204)
LB1047-RCC (kidney, adherent) | 0.528 | 7.12 | 0.974 | < 4.70
LB2241-RCC (kidney, adherent) | 0.414 | 7.45 | 0.977 | < 4.70
LB2518-MEL (melanoma, adherent) | 0.983 | < 6.00 | 0.983 | < 4.70
LC4-1 (lymphoblastic leukaemia, suspension) | 0.045 | > 8.41 | 0.959 | < 4.70
LC-1-sq (lung squamous cell carcinoma, adherent) | 0.911 | < 6.00 | 0.985 | < 4.70
LC-2-ad (lung adenocarcinoma, adherent) | 0.884 | < 6.00 | 0.941 | < 4.70
LCLC-97TM1 (large cell lung carcinoma, adherent) | 0.832 | 6.14 | 0.949 | < 4.70
LCLC-103H (large cell lung carcinoma, adherent) | 0.775 | 6.44 | 0.983 | < 4.70
LN-18 (glioma, adherent) | 0.48 | 7.25 | 0.994 | < 4.70
LN-229 (glioma, adherent) | 0.297 | 7.77 | 0.971 | < 4.70
LN-405 (glioma, adherent) | 0.605 | 6.88 | 0.978 | < 4.70
LNCaP-Clone-FGC (prostate, adherent) | 0.956 | < 6.00 | 0.96 | < 4.70
LNZTA3WT4 (glioma, adherent) | 0.331 | 7.67 | 0.978 | < 4.70
LOU-NH91 (lung squamous cell carcinoma, adherent) | 0.938 | < 6.00 | 0.978 | < 4.70
LOUCY (T-cell lymphoblastic leukaemia, suspension) | 0.018 | > 8.41 | 0.99 | < 4.70
LOXIMVI (melanoma, semi-adherent) | 0.255 | 7.86 | 0.984 | < 4.70
LP-1 (myeloma, suspension) | 0.137 | 8.21 | 0.964 | < 4.70
LS-123 (large intestine, adherent) | 0.731 | 6.44 | 0.961 | < 4.70
LS-180 (large intestine, adherent) | 0.551 | 7.06 | 0.98 | < 4.70
LS-411N (large intestine, adherent) | 0.285 | 7.88 | 0.928 | < 4.70
LS-513 (large intestine, adherent) | 0.839 | 6.14 | 0.936 | < 4.70
LS-1034 (large intestine, adherent) | 0.825 | 6.16 | 0.955 | < 4.70
LU-65 (large cell lung carcinoma, suspension) | 0.852 | < 6.00 | 0.97 | < 4.70
LU-99A (large cell lung carcinoma, adherent) | 0.073 | > 8.41 | 0.979 | < 4.70

Cell Line | AUC (FK866) | pIC50 (FK866) | AUC (FR-180204) | pIC50 (FR-180204)
LU-134-A (small cell lung carcinoma, suspension) | 0.281 | 7.84 | 0.985 | < 4.70
LU-135 (small cell lung carcinoma, suspension) | 0.093 | 8.39 | 0.984 | < 4.70
LU-139 (small cell lung carcinoma, suspension) | 0.141 | > 8.41 | 0.98 | < 4.70
LU-165 (small cell lung carcinoma, suspension) | 0.331 | 7.70 | 0.985 | < 4.70
LXF-289 (lung adenocarcinoma, adherent) | 0.604 | 6.92 | 0.985 | < 4.70
LoVo (large intestine, adherent) | 0.798 | 6.32 | 0.987 | < 4.70
M14 (melanoma, adherent) | 0.335 | 7.67 | 0.838 | 4.84
M059J (glioma, adherent) | 0.342 | 7.66 | 0.979 | < 4.70
MC116 (B-cell lymphoma, suspension) | 0.013 | > 8.41 | 0.999 | < 4.70
MC-CAR (haematopoietic neoplasm, suspension) | 0.029 | > 8.41 | 0.944 | < 4.70
MC-IXC (neuroblastoma, adherent) | 0.036 | > 8.41 | 0.995 | < 4.70
MCF7 (breast, adherent) | 0.539 | 7.10 | 0.986 | < 4.70
MDA-MB-175-VII (breast, adherent) | 0.982 | < 6.00 | 0.949 | < 4.70
MDA-MB-231 (breast, adherent) | 0.542 | 7.09 | 0.976 | < 4.70
MDA-MB-330 (breast, adherent) | 0.97 | < 6.00 | 0.978 | < 4.70
MDA-MB-361 (breast, adherent) | 0.969 | < 6.00 | 0.97 | < 4.70
MDA-MB-415 (breast, adherent) | 0.95 | < 6.00 | 0.983 | < 4.70
MDA-MB-436 (breast, adherent) | 0.843 | < 6.00 | 0.98 | < 4.70
MDA-MB-453 (breast, adherent) | 0.641 | 6.79 | 0.981 | < 4.70
MDST8 (large intestine, adherent) | 0.159 | 8.25 | 0.955 | < 4.70
ME-1 (acute myeloid leukaemia, suspension) | 0.945 | < 6.00 | 0.953 | < 4.70
ME-180 (cervix, adherent) | 0.404 | 7.47 | 0.957 | < 4.70
MEG-01 (chronic myeloid leukaemia, suspension) | 0.105 | > 8.41 | 0.907 | < 4.70
MEL-JUSO (melanoma, adherent) | 0.283 | 7.85 | 0.97 | < 4.70
